The campaign covered roughly 310,000 compounds. About 2,200 (0.71%) showed an effect of 50% or more. The effect is printed as a negative number. Some of the results follow.
Target: human ether-à-go-go-related gene (hERG) potassium channel (human, UniProt Q12809)
Assay: primary screen, population patch clamp on CHO cells stably expressing hERG
Protocol: Briefly, Chinese hamster ovary (CHO) cells stably expressing the hERG channel were dislodged from tissue culture flasks and dispensed into PPC plates. […] During the recording, background leak currents were estimated by a 100 ms step to -80 mV from an initial holding potential of -70 mV and subtracted from the subsequent current measurement. The campaign was conducted in two phases using slight differences in recording protocol. In the first phase, the initial voltage pulse used a 100 ms step to -30 mV from a holding potential of -70 mV, a 2 s conditioning step to +25 mV, and a 2 s test step to -30 mV. During the second phase of the screen, the potential during the conditioning step was raised to +45 mV. In both phases of the campaign, a secondary voltage pulse was applied using the same parameters as the second phase initial pulse. The initial and secondary pulses were applied in the absence of compound, and upon application of 1 μM and 10 μM test concentrations. Small molecule effects on hERG current density were quantified by […].

human ether-à-go-go-related gene (hERG) potassium channel, sequence (Q12809 whole entry, looked up): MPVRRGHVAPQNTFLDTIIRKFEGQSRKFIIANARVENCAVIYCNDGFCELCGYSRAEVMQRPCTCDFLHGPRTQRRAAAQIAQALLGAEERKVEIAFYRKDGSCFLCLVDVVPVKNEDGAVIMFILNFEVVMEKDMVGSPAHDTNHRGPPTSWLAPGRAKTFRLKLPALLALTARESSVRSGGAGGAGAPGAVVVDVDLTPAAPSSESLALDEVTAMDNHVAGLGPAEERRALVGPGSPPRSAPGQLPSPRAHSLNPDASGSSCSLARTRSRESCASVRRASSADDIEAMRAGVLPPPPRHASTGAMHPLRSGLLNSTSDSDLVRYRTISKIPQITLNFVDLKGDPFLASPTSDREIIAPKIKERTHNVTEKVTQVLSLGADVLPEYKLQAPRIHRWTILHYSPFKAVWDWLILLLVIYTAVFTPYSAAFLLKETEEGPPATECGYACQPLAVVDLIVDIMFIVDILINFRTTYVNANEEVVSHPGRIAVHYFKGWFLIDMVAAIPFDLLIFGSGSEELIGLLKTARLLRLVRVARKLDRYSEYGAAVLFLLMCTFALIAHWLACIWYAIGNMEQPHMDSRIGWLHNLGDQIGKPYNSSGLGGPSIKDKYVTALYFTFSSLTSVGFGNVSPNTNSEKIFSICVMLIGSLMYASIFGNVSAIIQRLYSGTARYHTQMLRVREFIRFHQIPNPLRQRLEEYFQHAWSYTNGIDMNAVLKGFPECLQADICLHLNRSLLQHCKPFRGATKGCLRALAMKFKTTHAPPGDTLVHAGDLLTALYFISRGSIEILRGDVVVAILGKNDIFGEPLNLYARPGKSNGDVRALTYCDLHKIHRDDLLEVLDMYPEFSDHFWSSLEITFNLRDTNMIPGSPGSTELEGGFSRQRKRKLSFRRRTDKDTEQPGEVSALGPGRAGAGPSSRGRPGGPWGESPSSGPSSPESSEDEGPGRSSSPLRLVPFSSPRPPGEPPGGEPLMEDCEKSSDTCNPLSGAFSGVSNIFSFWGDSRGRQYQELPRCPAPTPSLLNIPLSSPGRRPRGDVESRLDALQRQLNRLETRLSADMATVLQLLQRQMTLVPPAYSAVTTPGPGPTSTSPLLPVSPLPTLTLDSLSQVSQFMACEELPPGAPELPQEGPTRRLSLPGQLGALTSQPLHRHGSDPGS

Compound | hERG current change (%, negative = inhibition) at 1uM [%]
Cc1noc(C)c1CCC(=O)Nc1c(C(C)C)cccc1C(C)C | -4.83
CC(C(=O)N=Nc1c(O)n(C)c2ccc(Br)cc12)n1cnc2ccccc2c1=O (stereo not drawn) | 10.7
O=C(Cc1ccc(S(=O)(=O)N2CCOCC2)s1)N1CCN(S(=O)(=O)c2cccc(Cl)c2)CC1 | 14.8
Cc1ncc[nH]1 | 13.2
Oc1cccc(NC(=S)N=Nc2c(O)[nH]c3ccccc23)c1 | 6.83
CCS(=O)CCSc1nc2ccccc2s1 (stereo not drawn) | 6.93
COc1cc(OC)cc(C(=O)NCCOC23CC4CC(CC(C4)C2)C3)c1 | 3.66
CC1CC(Nc2ccccc2)c2ccccc2N1C(=O)c1ccco1 (stereo not drawn) | 12.1
COc1cc2c(cc1NC(=O)c1cc(-c3cccnc3)nc3ccc(C)cc13)oc1ccccc12 | 9.73
Cc1ccc(-c2ccc3nnc(SCC(=O)NCC4CCCO4)n3n2)cc1 (stereo not drawn) | 5.54
O=C(O)CCC(=O)Nc1ccc(N2CCCCCC2)cc1 | 8.38
COc1cccc(C(N)=O)c1 | 13
COc1ccccc1OCC(=O)Nc1ccc(S(=O)(=O)Nc2cc(C)on2)cc1 | 16.8
CCc1ccc(C(=O)NNC(=O)c2ccc3c(=O)n4c(nc3c2)CCC4)cc1 | 9.72
Cc1cnc(C(=O)Nc2ccccc2F)cn1 | 19.9
CCCc1nc(NCCO)c(C#N)c2c1CCCC2 | 7.23
CC(C)CCn1c(=O)c2ccccc2n2c(CN3CCOCC3)nnc12 | 3.76
O=C(Cn1cnc2ccccc2c1=O)N/N=C/c1ccc(Br)cc1 | 9.21
O=C(N/N=C/C1CCCCC1)c1ccccn1 | 11
COC(=O)c1ccccc1S(=O)(=O)N(Cc1ccco1)Cc1cc2cc(OC)ccc2[nH]c1=O | -9.26
COc1ccc(C=O)cc1OC(=O)N1CCOCC1 | 4.17
O=C(c1ccccc1Oc1nnnn1-c1ccccc1)N1CCOCC1 | 9.38
c1ccc(Nc2nc(N3CCCC3)nc(N3CCCC3)n2)cc1 | 12

Compound | hERG current change (%, negative = inhibition) at 1uM [%]
CCCCNc1nc2c(c(=O)n(C)c(=O)n2C)n1Cc1cccc(OC)c1 | -3.67
COc1ccc2[nH]c3nc(SCC(=O)Nc4cccc(NC(C)=O)c4)nnc3c2c1 | 11.5
COC(=O)c1c(C)oc2ccc(OC(=O)c3cccs3)cc12 | 6.09
Cn1c(C(=O)NCCc2c[nH]c3ccccc23)cc2sccc21 | 7.58
COc1cccc(NC(=O)C(=O)NCCc2ccc(F)cc2)c1 | 6.19
O=C(CN1C(=O)NC2(CCCCCC2)C1=O)c1ccc2c(c1)OCCO2 | 3.38
CN1C(=O)C(C)(C)c2cc(S(=O)(=O)NCC3CCC(C(=O)NC4CCCCC4)CC3)ccc21 (stereo not drawn) | 13.9
O=C(CCc1nnc2ccc(NCc3ccco3)nn12)N1CCCCC1 | 15.4
O=C(NCc1ccco1)C1(c2ccc(Cl)cc2)CCCC1 | 6.19
Cc1cc(NC(=O)C(C)SCC(=O)N(C)Cc2ccccc2F)no1 (stereo not drawn) | 15.8
O=C(O)C1=C[C@@H](c2ccc(C(F)(F)F)cc2)C[C@@H](OCCCCO)O1 | 14.2
Clc1ccc(N2CCN(c3cnc4ccccc4n3)CC2)cc1 | 16.2
CCNc1nc(NCC)n2c(SCC(=O)NC34CC5CC(CC(C5)C3)C4)nnc2n1 | 5.57
FC(F)(F)c1nc2ccccc2c2nc3ccccc3n12 | 13.3
COc1ccc(C(=O)C2CCCN(Cc3cccn3-c3nccs3)C2)cc1OC (stereo not drawn) | -90.2
Cc1c(C(=O)N2CCC3(CC2)OCCO3)oc2ccc(S(=O)(=O)N3CCOCC3)cc12 | 15.8
O=C(CCCc1c[nH]c2ccccc12)N[C@@H](Cc1c[nH]c2ccccc12)C(=O)O | 13.9
C[C@H]1CN=C(N(C)C)N1CC1CCCC1 | 8.48
COC(=O)N1C(c2ccccc2)C1c1ccccc1 (stereo not drawn) | 15.9
CC(C)CC(NC(=O)C1CCC(C)CC1)C(=O)NCc1ccccn1 (stereo not drawn) | 16.8
COc1ccc(-c2[nH]ncc2-c2ccc(Cl)cc2)c(O)c1 | 7.01
CCOc1ccc(-n2ccc(=O)c(C(=O)Nc3ccc(S(=O)(=O)Nc4ncccn4)cc3)n2)cc1 | 13.8
